Measurements reported in PubChem BioAssay AID588855 (National Center for Advancing Translational Sciences (NCATS), 2011).
About 5,000 (1.2%) of roughly 410,000 compounds were called active. This list was built around the results that the source calls inconclusive (neither active nor inactive); the mix of calls is not that of the screen. Calls come from the whole dose curve; as a rule, active = well fitted inhibition curve with a large enough effect; inconclusive = small, poorly fitted or top-dose-only effect; inactive = no such curve, though single readings can be large or run the other way. Potencies of inconclusive entries are doubtful fits and often do not repeat.

Test: qHTS for Inhibitors of TGF-b; note: nearly all actives have a fitted effect of over 65% in size
Details: HepG2 CAGA-GFP TGF-b/SMAD3 reporter, GFP fluorescence, 18 h, TGF-beta stimulated, 500 pg/mL final; series mostly up to 46.1 µM; activity, negative = inhibition: at the top concentration
Outline: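 HEPG2 CAGA-GFP, 1000 cells/well; 2 h settle, 37 C; cpd via pin tool; TGF-b 500 pg/mL final; 18 h, 37 C; GFP imaging ex488/em500-530; %Activity normalised to -TGF-b and +DMSO controls; CRC fit, curve class.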
% is set by controls: 0 for no effect and ±100 for the full control effect; potency is the fitted concentration of half-maximal effect; tags give direction and shape of the fitted curve.

| Compound | Potency | activity, negative = inhibition |
| --- | --- | --- |
| CCOc1ccc(/C=N/NC(=O)C(=O)N2CCCCCC2)c2ccccc12 | active: 7.94 µM | – |
| O=C(/C=C(\O)c1ccc(Cl)cc1)C(=O)NNC(=O)C(O)(c1ccccc1)c1ccccc1 | inconclusive: 35.5 µM [inhibitor, single point] | – |
| COc1ccc(N(C(=O)COc2cccc(C)c2)S(=O)(=O)c2ccc(C)cc2)cc1 | – | inactive: -13.5% |
| CC(C)NC(=O)c1cnc2sc(N3CCCCCC3)nn2c1=O | inconclusive: 6.31 µM [inhibitor, single point] | – |
| CN(c1ccccc1)S(=O)(=O)c1ccc(-c2ccccc2)cc1 | inconclusive: 8.91 µM [inhibitor, partial curve] | – |
| Cc1cc(C)nc(NC(=S)Nc2ccc(F)cc2F)c1 | inconclusive: 35.5 µM [inhibitor, single point] | – |
| COc1cc2c(cc1OC)C(C)N(C(=O)c1cc3c(s1)-c1c(C)cccc1OC3)CC2 (stereo not drawn) | inconclusive: 35.5 µM [inhibitor, single point] | – |
| Fc1ccc(-c2cc(C(F)(F)C(F)F)[nH]n2)cc1 | inconclusive: 35.5 µM [inhibitor, single point] | – |
| CCOC(=O)C(NC(=O)c1ccccc1Cl)(Nc1sc2c(c1C(N)=O)CCC2)C(F)(F)F (stereo not drawn) | inconclusive: 22.4 µM [inhibitor, single point] | – |
| Cc1ccc2oc(C(=O)Nc3c(C(=O)c4ccc(C)c(F)c4)oc4ccccc34)cc(=O)c2c1 | – | inactive: -10.4% |
| O=C(c1cccc(F)c1)N1CCC(N2CCOCC2)CC1 | – | inactive: 0% |
| COc1cccc(NC(=O)[C@H](CC(C)C)NC(=O)N2CCn3c2nc2ccccc23)c1 | inconclusive: 17.8 µM [inhibitor, single point] | – |
| O=C(CCOc1ccccc1)N(Cc1cccnc1)c1nc2c(Cl)cccc2s1 | inconclusive: 0.708 µM [inhibitor, full curve, poor fit] | – |
| COc1ccc(Br)cc1CN1CCCC(C(=O)N2CCCCCC2)C1 (stereo not drawn) | inconclusive: 22.4 µM [inhibitor, partial curve, poor fit] | – |
| O=C(Nc1cccc(O)c1)c1cnn2cccnc12 | inconclusive: 20 µM [inhibitor, single point] | – |
| Cc1ccc(C2c3[nH]c4ccccc4c3CCN2C(=O)c2ccc(N(C)C)cc2)cc1 (stereo not drawn) | inconclusive: 12.6 µM [inhibitor, partial curve, poor fit] | – |
| COc1ccc(/C=C/C(=O)OCC(=O)NCc2cccs2)cc1OC | inconclusive: 5.01 µM [inhibitor, partial curve] | – |
| COC1(c2cc(-c3ccccc3)nc(N)n2)CCCCC1 | inconclusive: 1.12 µM [inhibitor, single point] | – |
